# Assay results taken from the supplement of paper PMC10126150.
# Values marked as one replicate rest on one cluster of the flow cell; about a third of the high ones do not repeat.
# Tested on: ATP
# Assay: switch fluorescence ratio, 500 uM ATP over buffer (Cy3 cluster intensity, sum of 5 cycles each) (fold (ratio)); higher = stronger signal-on switching upon ATP binding; sequences stand for … in TCGTCGGCAGCGTCAGATGTGTATAAGAGACAGTTTTTTTTTTTTTTTTTTTTTTTTT…TC
# Settings: aptamer strand: ATP DNA aptamer (quencher-CACCTGGGGGAGTATTGCGGAGGAAGG + anchor), 100 nM annealed; ATP concentration: 500 uM; one replicate
# In short: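 Imaging in selection buffer was followed by imaging after 15 min with 500 uM ATP at 22 °C, for Cy3-labelled switching-strand clusters annealed to 100 nM quencher-labelled ATP aptamer on a modified Illumina MiSeq flow-cell. Five of these buffer/ATP cycles ran, separated by NaOH stripping and re-annealing. The fluorescence ratio per cluster is summed target-cycle over summed buffer-cycle Cy3 intensity, averaged per switch-domain sequence; clusters outside 100-1000 RFU were removed.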
# 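Further: ATP exposure 15 min at 22 °C before imaging.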
row,Sequence,switch fluorescence ratio
1,GGGTAAGAGG,1.03
2,GGGTAAGGAG,1.04
3,GGGTAAGTTA,1.02
4,GGGTACAAAC,1.05
5,GGGTACCTCG,1
6,GGGTACTCTG,1.03
7,GGGTATAATT,0.985
8,GGGTATCTAG,0.967
9,GGGTATTG,0.963
10,GGGTCCGGAT,1.02
11,GGGTCCGGCT,0.968
12,GGGTCCGTGA,1.02
13,GGGTCCGTTC,1.06
14,GGGTCGCACC,1.03
15,GGGTCGGAAA,0.969
16,GGGTCGGATT,0.956
17,GGGTGATCAC,1.01
18,GGGTGCCCGT,0.943
19,GGGTGTTTGA,1.04
20,GGGTTACACA,1.02
21,GGGTTACATA,1.08
22,GGGTTACGTT,1
23,GGGTTATATA,0.977
24,GGGTTATGTG,0.983
25,GGGTTGGTAA,0.962

row,Sequence,switch fluorescence ratio
1,GGGTTGGTCT,1.02
2,GGGTTTGCAA,1
3,GGGTTTGTCT,0.991
4,GGTAAAAGCA,0.995
5,GGTAAAAGCC,0.992
6,GGTAAAAGCG,0.987
7,GGTAAAGGAA,0.979
8,GGTAACTGGG,1.01
9,GGTAAGCGAG,0.98
10,GGTAAGTACA,1.33
11,GGTAAGTGGG,0.981
12,GGTAATCTTC,0.975
13,GGTAATTCAG,0.991
14,GGTAATTCTC,1.09
15,GGTACAAGCG,0.981
16,GGTACATCAA,1.02
17,GGTACCCGGA,1.01
18,GGTACTATCA,1.03
19,GGTACTCCG,1.06
20,GGTACTTCA,1.04
21,GGTAGAATCA,1.01
22,GGTAGACTTG,1.04
23,GGTAGATCTG,0.958
24,GGTAGATGAA,1.01
25,GGTAGCTGTT,1.04

row,Sequence,switch fluorescence ratio
1,GGTAGGCTGG,0.992
2,GGTAGGGCCC,1
3,GGTAGGTAAA,0.986
4,GGTAGGTATG,1
5,GGTAGGTGAG,0.987
6,GGTAGGTTAG,0.963
7,GGTAGTGTAG,1
8,GGTATACTCG,1.07
9,GGTATATATC,1.04
10,GGTATCGCTC,0.996
11,GGTATCTTCC,1.84
12,GGTATGAACA,0.996
13,GGTATGCATG,0.914
14,GGTATGGGCA,1.09
15,GGTATGTATA,1.03
16,GGTATGTCTT,0.978
17,GGTATTCATA,1
18,GGTATTCGTC,0.977
19,GGTCATGTAC,1.04
20,GGTCCAAAGC,0.975
21,GGTCCCGCAC,1.42
22,GGTCCTAACT,1.06
23,GGTCCTCTGC,1.31
24,GGTCCTGGCA,1.03
25,GGTCCTTACG,1.02

row,Sequence,switch fluorescence ratio
1,GGTCCTTGGA,0.996
2,GGTCGAACTG,1.01
3,GGTCGCATG,0.988
4,GGTCGCGCGT,1.01
5,GGTCGTAATT,1.08
6,GGTCGTATGA,1.01
7,GGTCGTATGG,0.922
8,GGTCGTGGGA,0.965
9,GGTCGTGTAC,0.993
10,GGTCTATTGT,1
11,GGTCTCAGTG,0.992
12,GGTCTGACGG,1.01
13,GGTCTGTATC,0.961
14,GGTCTTCAA,0.968
15,GGTCTTCCCG,1.03
16,GGTCTTGGG,0.977
17,GGTCTTTGTT,0.948
18,GGTGAATGCT,0.953
19,GGTGAATTAG,0.969
20,GGTGACTCAG,1.01
21,GGTGAGAGCA,0.96
22,GGTGAGTAAC,0.93
23,GGTGATGCAT,1.05
24,GGTGATGGCA,1.08
25,GGTGCAAGGG,1.08

row,Sequence,switch fluorescence ratio
1,GGTGCGTTAG,0.977
2,GGTGCTACTG,1.05
3,GGTGCTGTTT,0.969
4,GGTGCTTCGA,1.01
5,GGTGCTTGAC,1.01
6,GGTGGAGCTG,0.985
7,GGTGGCATGC,0.997
8,GGTGGGAGAG,1.03
9,GGTGGGGGAC,0.989
10,GGTGGTCCGG,1.01
11,GGTGGTGCG,0.987
12,GGTGGTTCCT,1.03
13,GGTGGTTCGT,0.965
14,GGTGGTTTAC,1.05
15,GGTGGTTTCA,0.997
16,GGTGTAAGTT,0.967
17,GGTGTAGTA,0.983
18,GGTGTAGTCA,1.02
19,GGTGTATACT,0.986
20,GGTGTATATT,0.986
21,GGTGTCCTGA,0.975
22,GGTGTCGGCG,1.05
23,GGTGTGACGC,1.01
24,GGTGTGTCGG,0.946
25,GGTTAAACAT,1.07

row,Sequence,switch fluorescence ratio
1,GGTTAACCAT,1.02
2,GGTTAAGAGT,0.961
3,GGTTAAGGGC,1.01
4,GGTTAAGTCC,1.07
5,GGTTAATAGT,1.02
6,GGTTAATGCT,0.993
7,GGTTAATTTC,0.97
8,GGTTAGCGCC,0.975
9,GGTTAGGGTT,0.978
10,GGTTAGTGAC,1.02
11,GGTTATGCAC,1.07
12,GGTTATGGGT,0.986
13,GGTTCATATC,0.979
14,GGTTCGAATA,0.993
15,GGTTCGCCG,1.02
16,GGTTCGTCCC,0.989
17,GGTTCTAGA,1.02
18,GGTTGAAAAT,1.01
19,GGTTGAAAT,0.973
20,GGTTGAAGCA,0.987
21,GGTTGAGCTT,0.982
22,GGTTGCCTTG,0.979
23,GGTTGGATGT,1.01
24,GGTTGGCGGT,0.997
25,GGTTGGGCTA,0.978

row,Sequence,switch fluorescence ratio
1,GGTTGTTCCT,0.984
2,GGTTGTTCGA,1.01
3,GGTTTAAGCG,1.01
4,GGTTTACCGT,0.958
5,GGTTTACTTG,1.01
6,GGTTTATAGC,1
7,GGTTTCAAAC,1.02
8,GGTTTCCTTC,1.03
9,GGTTTCTATG,1.03
10,GGTTTCTCAA,0.98
11,GGTTTCTCTA,0.978
12,GGTTTCTG,1.04
13,GGTTTCTGTA,0.985
14,GGTTTGATCA,0.968
15,GGTTTGTGAA,0.981
16,GGTTTTGCCT,0.973
17,GGTTTTTGAA,0.98
18,GTAAAAGGAG,1.02
19,GTAAAATTGT,0.992
20,GTAAACGGGA,1.03
21,GTAAAGCGCG,1.06
22,GTAAAGTGTA,0.983
23,GTAAATTCAT,0.978
24,GTAAATTGCA,1.03
25,GTAACTAGGG,1

row,Sequence,switch fluorescence ratio
1,GTAACTTTGG,0.959
2,GTAAGAAAGG,0.944
3,GTAAGACGGA,0.998
4,GTAAGCCTGC,1.03
5,GTAAGCGAGC,0.978
6,GTAAGTCACT,1.08
7,GTAAGTGTGG,0.99
8,GTAATAATAG,0.995
9,GTAATAGGAC,1.06
10,GTAATCTACA,1.04
11,GTAATGTAAT,0.981
12,GTAATTACCT,1.12
13,GTAATTATGG,0.964
14,GTAATTGTGG,0.945
15,GTACAAGCAC,1.28
16,GTACACGAA,1.07
17,GTACACGTGC,0.989
18,GTACATATTT,1.03
19,GTACGCCTTA,1.06
20,GTACGCGCA,1.06
21,GTACGGTT,1.03
22,GTACGTGTTC,0.975
23,GTACTAAGTT,1.08
24,GTACTAGATA,1.01
25,GTACTTTAAA,1
